A collection of fitness landscapes (doi:10.1016/j.celrep.2020.107928)
In all, about 81,000 sequences were measured (“one-hybrid fitness for binding parS DNA”: median about -0.17, highest 2% from about 0.51 on). This is one part of the list.

B1: Caulobacter ParB omega fusion; a variant is named by its letters at X, in order, B8GW30 (parent)
chain: MESVVVGEPGMSEGRRGLGRGLSALLGEVDAAPAQAPGEQLGGSREAPIEILQRNPDQPRRTFREEDLEDLSNSIREKGVLQPILVRPSPDTAGEYQIVAGERAWRAAQRAGLKTVPIMVRELDDLAVLEIGIIENVQRADLNVLEEALSYKVLMEKFERTQENIAQTIGKSXSHVANXMRLLXLPDEVQSYLVSGELTAXHARAIAAAADPVALAKQIIEGGLSVRETEALARKAPNLSAGKSKGGRPPRVKDTDTQALESDLSSVLGLDVSIDHRGSTGTLTITYATLEQLDDLCNRLTRGI

Variants of: B1
Assay: one-hybrid fitness for binding parS DNA (scaled: cognate 1, non-cognate 0); higher = stronger binding
Settings: with parS DNA site
How it was run: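 Fitness here means the log change in variant-to-wild-type read ratio between plasmids sequenced before and after selection. That scale was set so cognate equals 1 and non-cognate equals 0. The selection was a bacterial one-hybrid screen of Caulobacter ParB libraries, four specificity codons randomised, in E. coli USO carrying a HIS3 reporter with the site 19 bp from the promoter, grown 48 hours at 37°C on M9-minus-histidine with 0.1 mM IPTG and 5 mM 3-AT.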

Variant | one-hybrid fitness for binding parS DNA
NHHP | ≤ 0.2
LCWA | ≤ 0.2
RESV | ≤ 0.2
RGIE | ≤ 0.2
TQLR | ≤ 0.2
NHYG | ≤ 0.2
LAIG | ≤ 0.2
RDAV | ≤ 0.2
AAYP | ≤ 0.2
MATP | ≤ 0.2
LNKR | ≤ 0.2
SNHE | ≤ 0.2
AVLQ | ≤ 0.2
HYGS | ≤ 0.2
RNNY | 0.434
VGLC | ≤ 0.2
CQLG | ≤ 0.2
AYPW | ≤ 0.2
PIIT | ≤ 0.2
ALIT | ≤ 0.2
QKMN | ≤ 0.2
RTND | ≤ 0.2
LTME | ≤ 0.2
WGGG | ≤ 0.2
VPQV | ≤ 0.2

Variant | one-hybrid fitness for binding parS DNA
KNEG | ≤ 0.2
YGWG | ≤ 0.2
QDCR | ≤ 0.2
ISKL | ≤ 0.2
NCYC | ≤ 0.2
TGNR | ≤ 0.2
PEGC | ≤ 0.2
SQCC | ≤ 0.2
KKGL | ≤ 0.2
QRGC | ≤ 0.2
RKGY | 0.377
EIAF | ≤ 0.2
HPRY | ≤ 0.2
LALQ | ≤ 0.2
AMGA | ≤ 0.2
VSYR | ≤ 0.2
HGSG | ≤ 0.2
NSRH | ≤ 0.2
IQFR | ≤ 0.2
LTMS | ≤ 0.2
MKWM | ≤ 0.2
NQNG | ≤ 0.2
MTGT | ≤ 0.2
PREA | ≤ 0.2
RTEE | ≤ 0.2

Variant | one-hybrid fitness for binding parS DNA
KRKR | ≤ 0.2
DFYS | ≤ 0.2
YYAK | ≤ 0.2
PWVA | ≤ 0.2
EFLR | ≤ 0.2
RMRG | 0.962
RLHE | ≤ 0.2
KKKA | ≤ 0.2
DNPT | ≤ 0.2
RIVI | ≤ 0.2
KPKH | ≤ 0.2
VSVW | ≤ 0.2
IPWG | ≤ 0.2
QFRW | ≤ 0.2
KLAL | ≤ 0.2
FARH | ≤ 0.2
CNKA | ≤ 0.2
VKKC | ≤ 0.2
DSSS | ≤ 0.2
AINL | ≤ 0.2
QLRQ | ≤ 0.2
KGTT | ≤ 0.2
CNLW | ≤ 0.2
VPHT | ≤ 0.2
YMHG | ≤ 0.2

Variant | one-hybrid fitness for binding parS DNA
FESV | ≤ 0.2
RSPQ | ≤ 0.2
THNM | ≤ 0.2
MFPR | ≤ 0.2
IAQC | ≤ 0.2
QLEL | ≤ 0.2
PPCM | ≤ 0.2
NSMD | ≤ 0.2
PDRA | ≤ 0.2
RARR | ≤ 0.2
SYIR | ≤ 0.2
TWTN | ≤ 0.2
PEKC | ≤ 0.2
PDQD | ≤ 0.2
CRID | ≤ 0.2
AIWG | ≤ 0.2
MAPF | ≤ 0.2
VEKK | ≤ 0.2
QVNM | ≤ 0.2
RAQG | 1
PIRT | ≤ 0.2
DFNY | ≤ 0.2
NIVS | ≤ 0.2
EVKC | ≤ 0.2
WVVS | ≤ 0.2

Variant | one-hybrid fitness for binding parS DNA
NPFS | ≤ 0.2
RDYC | ≤ 0.2
NRLI | ≤ 0.2
MIYY | ≤ 0.2
RLEQ | ≤ 0.2
VSEM | ≤ 0.2
TWPS | ≤ 0.2
MYTT | ≤ 0.2
VPQT | ≤ 0.2
ELGN | ≤ 0.2
QGPK | ≤ 0.2
CKTS | ≤ 0.2
QFSF | ≤ 0.2
AYCL | ≤ 0.2
ELEV | ≤ 0.2
AELD | ≤ 0.2
RFFF | ≤ 0.2
PMAK | ≤ 0.2
AGQI | ≤ 0.2
QNNE | ≤ 0.2
KSWC | ≤ 0.2
PITP | ≤ 0.2
FQCR | ≤ 0.2
NEKG | ≤ 0.2
LFCV | ≤ 0.2

Variant | one-hybrid fitness for binding parS DNA
FLIY | ≤ 0.2
VPEQ | ≤ 0.2
HCTQ | ≤ 0.2
PEVV | ≤ 0.2
ETQY | ≤ 0.2
RWMA | 0.287
FDLR | ≤ 0.2
ESSY | ≤ 0.2
QCCF | ≤ 0.2
RTDY | 0.437
NWPM | ≤ 0.2
RAMM | 0.318
EAAC | ≤ 0.2
DIAW | ≤ 0.2
VLPL | ≤ 0.2
ARKG | ≤ 0.2
GKDG | ≤ 0.2
DLIG | ≤ 0.2
YPVR | ≤ 0.2
RKQY | 0.4
VPLH | ≤ 0.2
RVAH | 0.225
PDRV | ≤ 0.2
CPVC | ≤ 0.2
KVCE | ≤ 0.2

Variant | one-hybrid fitness for binding parS DNA
FPYT | ≤ 0.2
KTTT | ≤ 0.2
VPWG | ≤ 0.2
QRMD | ≤ 0.2
RNRI | ≤ 0.2
KKDL | ≤ 0.2
ATGT | ≤ 0.2
KLMY | ≤ 0.2
RPPY | ≤ 0.2
CGGA | ≤ 0.2
WLAS | ≤ 0.2
LRCC | ≤ 0.2
MAPI | ≤ 0.2
THHI | ≤ 0.2
MIAG | ≤ 0.2
NVTK | ≤ 0.2
QCLK | ≤ 0.2
KEGL | ≤ 0.2
HGWG | ≤ 0.2
QFAG | ≤ 0.2
LYVT | ≤ 0.2
QTQW | ≤ 0.2
LNLV | ≤ 0.2
IHDR | ≤ 0.2
DNAG | ≤ 0.2

Variant | one-hybrid fitness for binding parS DNA
TYTF | ≤ 0.2
RSLQ | ≤ 0.2
TEAT | ≤ 0.2
KDKY | ≤ 0.2
DKGL | ≤ 0.2
PGQY | ≤ 0.2
AENE | ≤ 0.2
ETPY | ≤ 0.2
PVAT | ≤ 0.2
WQQT | ≤ 0.2
LVSD | ≤ 0.2
HLMY | ≤ 0.2
KKGR | ≤ 0.2
AQSR | ≤ 0.2
TRYK | ≤ 0.2
TYIT | ≤ 0.2
DEVS | ≤ 0.2
AENR | ≤ 0.2
ISKA | ≤ 0.2
HTSF | ≤ 0.2
